± gives the standard deviation of the averaged measurements. Some of the results follow.
Test system: PfAP2-G AP2 domain (GST-tagged)
Test: gcPBM binding intensity (ln(normalized median fluorescence intensity)); higher = stronger DNA binding
How it was run: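 Binding intensity is the highest Masliner-normalised natural-log median intensity over replicate spots in either probe orientation. To obtain it, GST-tagged P. falciparum DNA-binding domains made in E. coli were incubated for 1 h on an Agilent 4 × 180k array of primer-extended double-stranded 36-bp intergenic genomic probes plus negative controls. Detection used Alexa488 anti-GST antibody with scanning at 488 nm.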

| Sequence | gcPBM binding intensity (ln) |
| --- | --- |
| AAGCCTTAAAAGGAAAGTACGTATATATATATATAT [XGTACX_site8559] | 10.9 ± 0.62 |
| ATATTTAATTAAAAGAGTACTTAAATAAAATAAATG [XGTACX_site2149] | 11.2 ± 0.85 |
| ATGAAACATGTATATTGTACTCTGGATCAATTTAAT [XGTACX_site6413] | 11.1 ± 0.59 |
| ATAATATATGAAAGTGGTACACAAAGGAAAATAAAA [XGTACX_site333] | 11.6 ± 0.97 |
| TTATAAATAAAAAATACACACATATATTTATTTATA [CACACA_site6242] | 9.77 ± 0.028 |
| TTTTTTTTTTTGTTCACACATATATATATATATATA [CACACA_site5376] | 10.1 ± 0.33 |
| AATAATAAATCAAACTGTACATATATTTTCAATCTA [XGTACX_site3344] | 11.2 ± 0.85 |
| TGTAGTCTGGAGAAAAGTACACAGTATCCGGTAACT [XGTACX_site4934] | 11.6 ± 0.98 |
| TTCTTCTAATCCTTTTATCTCATTAAAAAAATATAA [CACACA_negctrl_site12] | 9.96 ± 0.27 |
| TATACATACACATACACACATACACCCATACACATA [CACACA_site1746] | 10.3 ± 0.21 |
| TATATATATATATATACACACATATATACATATATA [CACACA_site4043] | 9.96 ± 0.43 |
| ATCCTAATATTGAACTGTACCTTATATGTTATTATA [XGTACX_site1014] | 11.1 ± 0.67 |
| GGTTATATATTTTTTGCACACCAAAAAAGAGAATAT [CACACA_site2731] | 10.3 ± 0.3 |
| ACGTGTATTTATTTAGTGCACTTTATATTTTTTCTT [GTGCAC_site9426] | 10.6 ± 0.4 |
| ATATATATATAATCATCACACATGCAGCCCTGATGA [CACACA_site5500] | 9.88 ± 0.2 |
| TATATATTACATACATGTACCCAAAAAAAAAAAAAA [XGTACX_site1168] | 11.2 ± 1.1 |
| ATAAATACATATGTGTGTACACATTATATATATATA [XGTACX_site1486] | 11.6 ± 0.69 |
| GAAAAATTAAAACCTACACACACATTTAAAAAAAAA [CACACA_site9005] | 10.05 ± 0.078 |
| TTTTTTATTCATGTAACACACATTTAATTATGAATT [CACACA_site2706] | 10 ± 0.17 |
| GAATGAATACGTTTTACACACTTGAATCTAATTTCA [CACACA_site6593] | 10.2 ± 0.17 |
| ATTCTACTTTTATTTATTTATTTGTTTATATATATA [XGTACX_negctrl_site609] | 10.03 ± 0.057 |
| ATATATATATATATATGTACTTATTTATTTATATTA [XGTACX_site4646] | 11.4 ± 0.99 |

| Sequence | gcPBM binding intensity (ln) |
| --- | --- |
| GTGTAGATATTGAAATGTACTCTCCATATAAAATAA [XGTACX_site4713] | 11 ± 0.52 |
| AAAGAATTTGCATATACACACAAAAAAATATATACA [CACACA_site386] | 10.03 ± 0.035 |
| CTTATAGGTCATTTCCTTGACCCCCTTTGTTGTACT [CACACA_negctrl_site551] | 10.8 ± 0.52 |
| ATCAGTCGGCAGGACAGTACACAGTAGCCAGAAAAT [XGTACX_site2550] | 11.2 ± 0.67 |
| TATAAATATAAATATACACACATATATATATATATA [CACACA_site1678] | 9.99 ± 0.36 |
| TTGCATTAATTTATGTGTACATATAAATTTTTATTT [XGTACX_site3060] | 11.6 ± 0.88 |
| TTTAACAAGTTAAACACACATACATATATACATATA [CACACA_site2536] | 9.76 ± 0.014 |
| TTTTTTTTTTTTTTATGTACACATCTAAAAAAAAGG [XGTACX_site2067] | 11.6 ± 1.1 |
| GCCCCCTAAAAAATTACACACGAAAAAAATGAATTT [CACACA_site9128] | 11.7 ± 1.2 |
| GGTCTAACAACATGCGCACACACATGAATATTCATA [CACACA_site1539] | 10.5 ± 0.36 |
| TAAGTATAAAAAAATAGTACAATTATGAAATATCGT [XGTACX_site2529] | 11.2 ± 0.71 |
| TTCTTTTTAATTAATACACACACACCCATATATATA [CACACA_site8719] | 10.3 ± 0.25 |
| TATAAAAATATATATATATATATATATATAATATGT [TGCATGCA_negctrl_site85] | 10.2 ± 0.42 |
| TTAAAAAAAAAACACACACACATACCCATATATATA [CACACA_site5768] | 10 ± 0.28 |
| ATTTGTTCCTTGGGAGTTTACTTTTTTTTAATTTTA [CACACA_negctrl_site638] | 10.15 ± 0.042 |
| TTTATTTAAGAAAAATGTACAGGTTCATTTCATAAT [XGTACX_site27] | 10.9 ± 0.54 |
| CATATAAATACATGCACACAAAAATATCAATACATT [CACACA_site2392] | 10.12 ± 0.014 |
| AACAAAATTGAAGGAACACACATACATATTTATATA [CACACA_site6227] | 10 |
| AAAAAATTAGATTATGCACACACACTAATAAATAAT [CACACA_site8604] | 10.07 ± 0.064 |
| ATGTGTTAAAAATGCACACAAAAAAATATACATATA [CACACA_site295] | 10.175 ± 0.007 |
| ACATGTGAACATTCAATGCACACGATGTAATTATAC [CACACA_site14] | 10.19 ± 0.042 |
| TTTTTTAAATATATGGTGCATAGAAAGATATTATAC [GTGCAC_site9984] | 10.2 ± 0.26 |

| Sequence | gcPBM binding intensity (ln) |
| --- | --- |
| ATATTATATATATACACACACACATGCATGCACCTA [CACACA_site106] | 10.06 ± 0.078 |
| TTTAAAAAAAGCAGTACATGCAAAATAATAACAAGC [TGCATGCA_site392] | 11 ± 0.53 |
| CAATTATATAATTGAAGTACTAGGAAAGATATATAT [XGTACX_site5459] | 11.2 ± 0.62 |
| TAAAAAAATATTACATGTACATAAAATATATATATA [XGTACX_site4633] | 11.4 ± 0.78 |
| AATTAAATTCGGTACTGTACATTTCAAAAATATACG [XGTACX_site48] | 11.1 ± 0.7 |
| TATACATATTTTTTTTGTACATATATAATATATATA [XGTACX_site2399] | 10.9 ± 0.52 |
| GGGAAAAAAAAAAGCACACATACGTAAATATATAAC [CACACA_site226] | 10.2 ± 0.22 |
| CTTAAATTTTACTGAAGTACAAAATCGGTTCAATGA [XGTACX_site3292] | 11 ± 0.72 |
| CACTACACTGTTAATAGTACATATATTTAAAAAAAA [XGTACX_site7371] | 11.1 ± 0.61 |
| ATGAATAAATAGGTCACACACAAATATATATAAATA [CACACA_site2416] | 10.5 ± 0.32 |
| TTGTTCGATATATGCACACAGTTTTGTTATTTTTCC [CACACA_site4972] | 10.135 ± 0.007 |
| TACAAATTTATATAAAGTACAAAAAATAATAAAAAT [XGTACX_site7355] | 11.1 ± 0.57 |
| AAAAAAAAAAAAAGTGCACACATAAAAATATGATCT [CACACA_site8090] | 10.7 ± 0.57 |
| ACATATGTTTTATGTAGTACTTATTTATTATTATAT [XGTACX_site7528] | 11.3 ± 0.6 |
| AAAAAAAACGGACACACACACATAAATATATATAAA [CACACA_site4260] | 11.3 ± 1.1 |
| AAAAGGTATAGAAACACACACACGTGAATATAGTTT [CACACA_site1905] | 9.93 ± 0.14 |
| CACACCCACCAACACACACACAAAAAAAAAAAGAAA [CACACA_site500] | 10.3 ± 0.7 |
| ATATTTTATTTTAATACACACAAGTTATATAATCAC [CACACA_site780] | 10.01 ± 0.099 |
| TACATTTTACTTGTTACACACATATAAAATTAACCA [CACACA_site2922] | 10.2 ± 0.18 |
| AAACGTACATAATACACACACATGTATACCTATAAA [CACACA_site7051] | 11.3 ± 1.1 |
| TCAAATAATAAGTATGCATGCTATATTTATATATAC [TGCATGCA_site920] | 9.75 ± 0.057 |
| AGAAAAAAAAAAAGTACACACATATAATATATATAT [CACACA_site2973] | 11.6 ± 1.2 |

| Sequence | gcPBM binding intensity (ln) |
| --- | --- |
| AGTTAATGAATAGGCACACATATATCTGTATAAATA [CACACA_site4448] | 10.1 ± 0.11 |
| CATATATATTTGTTCACACACACACTAGAAAAAAAA [CACACA_site5380] | 10.4 ± 0.26 |
| TAAAAAAATAAATATACACACATATATATATATATA [CACACA_site1089] | 10.1 ± 0.78 |
| TGTAGAAATGGGTGCACACACATATAAAATCTATAT [CACACA_site7224] | 10.7 ± 0.68 |
| GGATTTATTATATATACACACATACAGATATATATA [CACACA_site5222] | 9.96 |
| TCATTAAAAACTAAAAGTACTCAATATTATGAACAT [XGTACX_site7807] | 11.2 ± 0.64 |
| ATAAAAAATAAAATAAATAAAAAATATTTACCCTTA [TGCATGCA_negctrl_site396] | 9.43 ± 0.21 |
| TATGTACACCCATATACACACCTCTATAATATATAT [CACACA_site4563] | 11.6 ± 0.95 |
| ATATTGTAGATATTGTGTACATATTTTACAACTTTT [XGTACX_site7621] | 11.5 ± 0.91 |
| ACATCATATTAAGAAAGTACAAAAAGAGAACATATA [XGTACX_site1268] | 11 ± 0.4 |
| AAACAAAATTTATTTCAAAGTTAATAATTTTTATGT [CACACA_negctrl_site232] | 9.45 ± 0.23 |
| TTTTTCACATTTCAGTGTACATTTTAATCATATATA [XGTACX_site915] | 11.2 ± 0.79 |
| CGACAAAAATTTTACAGTACAGTATAAACCTTTTTA [XGTACX_site290] | 11.2 ± 0.84 |
| ATTTTTTTTTTTTTTTTAAGACAAACTCTTAATTTA [CACACA_negctrl_site1389] | 9.9 ± 0.22 |
| ATTCCAAAAAAATCAAGTACTAATTTATTATATTAC [XGTACX_site3920] | 10.9 ± 0.49 |
| TATTTTTTTAAGTGCAGTACACTTAATTTCCCCCAA [XGTACX_site7328] | 11.5 ± 1.2 |
| AAAAAAAAAAAAAAAAAAATATATTATATATATATA [XGTACX_negctrl_site467] | 10.3 ± 0.23 |
| TATATATATATAAATACATGCATATAATTAATCCAT [TGCATGCA_site400] | 9.85 ± 0.31 |
| TCAAAAAATATATTTGCACACTCAAAAAAAAAAAAA [CACACA_site860] | 9.82 ± 0.41 |
| TACACACATTACAGATGTACATAAAATTAAAAAAAT [XGTACX_site1804] | 11.3 ± 0.71 |
| CCTAGAAAAGCATATACACACGCGCAAAATAAAATT [CACACA_site4902] | 10.3 ± 0.26 |
| TCTTTAAAAAAAAAAAAAAAAAATTCCAAATAAATA [TGCATGCA_negctrl_site538] | 9.39 ± 0.042 |
